# Measurements published in PubChem BioAssay AID720709 (National Center for Advancing Translational Sciences (NCATS), 2013).
# Screen size: about 360,000 compounds; about 520 (0.14%) were called active. This list was built around the results that the source calls inconclusive (neither active nor inactive); the mix of calls is not that of the screen. Calls follow the shape of the dose curve; as a rule, active = well fitted inhibition curve with a large enough effect; inconclusive = small, poorly fitted or top-dose-only effect; inactive = no such curve, though single readings can be large or run the other way. Potencies of inconclusive entries are left out as doubtful fits.
# Target: Rap guanine nucleotide exchange factor 3 (Homo sapiens) (UniProt O95398)
# Assay: qHTS for Antagonist of cAMP-regulated guanine nucleotide exchange factor 3 (EPAC1): primary screen; also: nearly all actives have a fitted effect of over 50% in size;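 as to activity change, negative = inhibition: plate controls were vehicle for no effect and positive control for full effect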
# Conditions: EPAC1 GEF assay, Rap1b-BODIPY-GDP exchange fluorescence; activity change, negative = inhibition: at 115 µM (top of the series)
# Potency is read from the fitted curve at half-maximal effect; tags tell the direction and shape of the fitted curve.
# Sequence of UniProt O95398 (O95398 whole entry, looked up): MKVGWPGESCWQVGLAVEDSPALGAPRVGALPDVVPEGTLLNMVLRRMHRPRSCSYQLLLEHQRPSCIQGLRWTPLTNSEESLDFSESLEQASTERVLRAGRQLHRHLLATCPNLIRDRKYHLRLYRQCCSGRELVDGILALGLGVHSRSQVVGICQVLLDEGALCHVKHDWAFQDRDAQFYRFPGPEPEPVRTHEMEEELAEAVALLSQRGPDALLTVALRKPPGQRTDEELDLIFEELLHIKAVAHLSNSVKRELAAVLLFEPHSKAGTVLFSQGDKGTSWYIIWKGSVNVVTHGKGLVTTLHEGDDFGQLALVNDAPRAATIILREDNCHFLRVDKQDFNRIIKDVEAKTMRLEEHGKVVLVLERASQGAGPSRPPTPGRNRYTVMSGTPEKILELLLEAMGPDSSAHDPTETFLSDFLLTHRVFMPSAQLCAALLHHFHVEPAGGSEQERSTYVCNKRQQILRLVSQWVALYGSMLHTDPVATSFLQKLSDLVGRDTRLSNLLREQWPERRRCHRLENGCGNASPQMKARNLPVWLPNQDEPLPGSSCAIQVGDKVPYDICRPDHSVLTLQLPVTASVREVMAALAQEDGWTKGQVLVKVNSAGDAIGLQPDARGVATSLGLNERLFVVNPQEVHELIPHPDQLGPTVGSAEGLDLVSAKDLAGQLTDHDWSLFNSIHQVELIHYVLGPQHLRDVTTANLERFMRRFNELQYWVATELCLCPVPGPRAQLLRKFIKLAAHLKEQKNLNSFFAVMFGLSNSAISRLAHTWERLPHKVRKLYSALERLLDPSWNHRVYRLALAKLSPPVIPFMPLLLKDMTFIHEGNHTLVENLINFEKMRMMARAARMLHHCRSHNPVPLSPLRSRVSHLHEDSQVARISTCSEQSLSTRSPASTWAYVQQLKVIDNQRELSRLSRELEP
Structure (SMILES),Potency,"activity change, negative = inhibition"
O=C(NNc1ccc([N+](=O)[O-])cn1)Nc1ccc(N=Nc2ccccc2)cc1,"inconclusive [inhibitor, single point]",–
Cc1ccc(-n2c(CSc3nc(C)cc(C)n3)nnc2SCC(=O)Nc2nccs2)cc1,"inconclusive [inhibitor, single point]",–
Nc1c(C(=O)CSc2nnc(Nc3ccc(F)cc3)s2)c(=O)[nH]c(=O)n1C1CC1,"inconclusive [inhibitor, single point]",–
CCOc1ccccc1N1CSC2=C(C#N)C(c3c(OC)ccc4ccccc34)CC(=O)N2C1 (centres undefined),–,inactive: 2.7%
COc1ccc(N2CCN(S(=O)(=O)CCNC(=O)c3ccc4c(c3)OCO4)CC2)cc1,–,inactive: -2.55%
CCc1ccc(Oc2nc([N+](=O)[O-])nn2C)cc1,–,inconclusive: -32.6% [inhibitor]
CCOc1cccc(NCc2cc3c(C(C)(C)C)nn(-c4ccccc4)c3[nH]c2=O)c1,–,inconclusive: -31.8% [inhibitor]
Cc1c(Cl)cnc(NC(=O)COC(=O)c2cccc(S(=O)(=O)N3CCOCC3)c2)c1Cl,–,inactive: -6.27%
COC(=O)Cn1ncc2c3ccccc3n(C)c2c1=O,–,inactive: -13.7%
S=C(Nc1ccc2nsnc2c1)NC1CCCCC1,"inconclusive [inhibitor, partial curve]",–
Cc1nn(CCC(=O)NNC(=S)Nc2ccc([N+](=O)[O-])cc2)c(C)c1[N+](=O)[O-],"inconclusive [inhibitor, single point]",–
CC(C)CNc1cc(Cl)c(S(=O)(=O)NCC(C)C)cc1C(=O)O,"inconclusive [inhibitor, partial curve]",–
COc1cc(/C=C/C(=O)N2C(=O)c3cccc(N)c3C2=O)cc(OC)c1OC,–,inactive: 5.27%
O=C(Cn1cnc2sc(-c3ccccc3)cc2c1=O)NCc1ccco1,"inconclusive [inhibitor, single point]",–
Cc1cc(S(=O)(=O)NCc2cccnc2)ccc1F,"inconclusive [inhibitor, partial curve]",–
O=C(NCCCN1CCOCC1)C(=O)NCc1ccccc1Cl,"inconclusive [inhibitor, single point]",–
O=C1c2ccccc2NC(c2cccc(O)c2)N1c1ccccc1 (centres undefined),–,inactive: -12.3%
Cc1ccc(CCNC(=O)C2CC(=O)N(C3CCCCC3)C2)cc1 (centres undefined),"inconclusive [inhibitor, full curve, poor fit]",–
CSc1ccccc1OCc1cc(C(=O)NCCc2ccco2)no1,–,inactive: 5.94%
NC(=O)c1c(NC(=O)C2COc3ccccc3O2)sc2c1CCN(Cc1ccccc1)C2 (centres undefined),–,inactive: 47.5%
CC1(C(=O)NS(=O)(=O)c2ccc(C#N)cc2)CCN1C(=O)C1(c2ccc(Cl)cc2)CCC1 (centres undefined),"inconclusive [inhibitor, partial curve]",–
Cc1noc(NS(=O)(=O)c2ccc(NC(=O)c3cc(-c4ccccc4Cl)nc4ccccc34)cc2)c1C,"inconclusive [inhibitor, single point]",–

Structure (SMILES),Potency,"activity change, negative = inhibition"
COc1cc(/C=C/c2ccc3cccc(O)c3n2)cc(OC)c1OC,"inconclusive [inhibitor, single point]",–
CCCCCCCCN1C(=O)[C@H](CC(=O)NCc2cccc3ccccc23)C[C@@]2(C(=O)OCC)CCCC=C12,"inconclusive [inhibitor, single point]",–
COc1ccc(NC(=O)CN(C)C(=O)c2ccc3[nH]c4c(c3c2)CC(C)CC4)cc1 (centres undefined),"inconclusive [inhibitor, partial curve, poor fit]",–
COc1ccc(C2=CC(c3cccc(OC)c3)n3nnnc3N2)cc1 (centres undefined),"inconclusive [inhibitor, single point]",–
O=C(N/N=C/c1ccc(N2CCOCC2)o1)c1ccccc1[N+](=O)[O-],–,inactive: 6.17%
CCN(CC)c1ccc(/C=c2\sc3nc4ccccc4n3c2=O)c(O)c1,"inconclusive [inhibitor, full curve, poor fit]",–
CC1CC(C)CN(S(=O)(=O)c2ccc(NC(=O)CN3C(=O)NC(C)(c4ccccc4)C3=O)cc2)C1 (centres undefined),"inconclusive [inhibitor, partial curve, poor fit]",–
CC(=O)Nc1ccc(S(=O)(=O)NCc2ccc(C(=O)N3CCOCC3)cc2)cc1,"inconclusive [inhibitor, full curve, poor fit]",–
NC1=NC(=O)/C(=C\c2ccco2)S1,"inconclusive [inhibitor, single point]",–
CC(=O)Nc1cccc(C(=O)NNC(=O)c2n[nH]c(=O)c3ccccc23)c1,"inconclusive [inhibitor, full curve, poor fit]",–
Cc1nc2ccccc2c2oc(C(=O)Nc3ccc4c(c3)OCCO4)cc12,"inconclusive [inhibitor, partial curve]",–
Cc1ccc(NC2=C(Cl)C(=O)OC2OC(=O)c2ccc(C)cc2)cc1 (centres undefined),–,inactive: -19.8%
COc1cccc(-c2noc(CCC(=O)NCC3CCCO3)n2)c1 (centres undefined),"inconclusive [inhibitor, partial curve]",–
COc1ccc(CNc2nc3ccccc3n2C)c(O)c1,–,inactive: -0.207%
CCSC1=N/C(=C\C=C2/Oc3ccccc3N2CC)C(=O)S1,–,inactive: -1.09%
COc1ccc(C(O)c2nc(-c3cc4ccccc4o3)cs2)cc1 (centres undefined),"inconclusive [inhibitor, full curve]",–
CS(=O)(=O)c1ccc2c(c1)sc1nc(=O)c(/C=C3/C=CC(=O)C(O)=C3)c(N)n12,active: 50.1 µM,–
COc1cc(F)ccc1-c1cc(C(=O)NCc2cccc(Cl)c2)[nH]n1,"inconclusive [inhibitor, single point]",–
CC(C)(C)OC(=O)NCCCC[C@H](NC(=O)c1nc[nH]c1C(=O)NCC(=O)OCc1ccccc1)C(=O)OC(C)(C)C,"inconclusive [inhibitor, partial curve]",–
CCOC(=O)C(C(=O)OCC)C1OC(=O)c2cc3c(cc21)C(=O)OC3C(C(=O)OCC)C(=O)OCC (centres undefined),"inconclusive [inhibitor, partial curve]",–
Clc1cccc(CNc2nc(-c3cccnc3)nc3ccccc23)c1,"inconclusive [inhibitor, single point]",–
COc1cc2c(cc1OC)C(c1cc3ccccc3oc1=O)=NC(C)(C)C2,"inconclusive [inhibitor, single point]",–

Structure (SMILES),Potency,"activity change, negative = inhibition"
COc1ccc(S(=O)(=O)N2CCN(C(=O)COc3ccccc3)CC2)cc1,"inconclusive [inhibitor, full curve, poor fit]",–
CC1(C)CC[C@]2(C(=O)O)CC[C@]3(C)C(=CC[C@@H]4[C@@]5(C)CC[C@H](O[C@@H]6O[C@H](C(=O)O)[C@@H](O)[C@H](O[C@@H]7OC[C@H](O)[C@H](O)[C@H]7O)[C@H]6O)C(C)(C)[C@@H]5CC[C@]43C)[C@@H]2C1,active: 50.1 µM,–
O=C1CCc2cc(S(=O)(=O)Nc3ccccc3)cc3c2N1CC3,"inconclusive [inhibitor, partial curve, poor fit]",–
CCc1ccccc1Nc1nn2c(=O)c3ccc(C(=O)NCc4ccccn4)cc3nc2s1,"inconclusive [inhibitor, single point]",–
Nc1ccc2nc(-c3cccc(-c4nc5ccc(N)cc5[nH]4)c3)[nH]c2c1,"inconclusive [inhibitor, full curve]",–
O=C(NCc1ccc2c(c1)OCO2)c1cc(-c2ccccc2)nn1CC1CC(c2cccnc2)=NO1 (centres undefined),"inconclusive [inhibitor, single point]",–
CC1CN(C(=O)CCC(=O)N2CCN(c3cccc(C(F)(F)F)c3)CC2)c2ccccc2O1 (centres undefined),"inconclusive [inhibitor, single point]",–
C/C(N)=C(/C#N)C(=O)CSc1ncnc2ccccc12,–,inactive: -14.6%
O=C(Nc1scc(-c2ccccc2)c1C(=O)O)c1ccccc1Cl,"inconclusive [inhibitor, single point]",–
CC(C)(C)c1ccc(C(=O)N/C(=C\c2ccco2)C(=O)Nc2ccccc2C(=O)O)cc1,–,inactive: -22.3%
CCOC(=O)c1c(NC(=O)C(C)Sc2cccc[n+]2[O-])sc2c1CCN(Cc1ccccc1)C2 (centres undefined),"inconclusive [inhibitor, partial curve, poor fit]",–
CS(=O)(=O)Nc1ccc(C2=NN(C(=O)c3ccco3)C(c3ccc(F)cc3)C2)cc1 (centres undefined),–,inactive: -1.68%
CS(=O)(=O)c1ccc(C(=O)NCCN2C(=O)S/C(=C\c3cccnc3)C2=O)cc1[N+](=O)[O-],"inconclusive [inhibitor, single point]",–
COc1ccc2c(c1)c1nnc(SCC(=O)NC3CC3)nc1n2C,"inconclusive [inhibitor, partial curve, poor fit]",–
O=C(CCCc1ccccc1)NCCN1CCOCC1,"inconclusive [inhibitor, partial curve]",–
Nc1cccc(S(=O)(=O)NC2=NCCC2)c1,"inconclusive [inhibitor, single point]",–
CC1CCc2c(C(=O)Nc3ccccn3)csc2C1 (centres undefined),–,inactive: -33.3%
CCOC(=O)c1sc(N)c(C(=O)Nc2ccccc2)c1C,–,inactive: 5.5%
CCN(CC)C(=O)C1=C(C)N(Cc2ccc(F)cc2)C(=O)C(CC(=O)NCCCCc2ccccc2)C1 (centres undefined),"inconclusive [inhibitor, single point]",–
CCN(CC)CCN1C(=O)c2cccc3cc(N)cc(c23)C1=O,"inconclusive [inhibitor, single point]",–
